According to PubChem BioAssay AID624296 (National Center for Advancing Translational Sciences (NCATS), 2012):
Screen size: about 350,000 compounds; about 9,900 (2.8%) were called active. The inconclusive results got no clear call from the source; some entries with a clear call stand among them for comparison. Calls come from the whole dose curve; as a rule, active = well fitted activation curve with a large enough effect; inconclusive = small, poorly fitted or top-dose-only effect; inactive = no such curve, though single readings can be large or run the other way. No potency is given beside an inconclusive call; the fits are too rough.

Test: A quantitative high throughput screen for small molecules that induce DNA re-replication in MCF 10a normal breast cells. Note: nearly all actives have a fitted effect of over 50% in size.
Conditions: MCF 10A DNA re-replication, Hoechst nuclear intensity, 48 h; series mostly up to 46.1 µM
Potency is the fitted concentration of half-maximal effect; tags give direction and shape of the fitted curve.

Structure (SMILES)	Potency
C[C@@H]1CN([C@H](C)CO)C(=O)Cc2cc(NC(=O)Nc3ccccc3)ccc2O[C@@H]1CN(C)C(=O)Nc1ccc2c(c1)OCO2	inactive
O=C(N/N=C/C1CCCCC1)c1ccccn1	inactive
COc1ccc(CN(C)CC(O)COC(c2ccc(OC)cc2)c2ccc(OC)cc2)cc1 (stereo not given)	inconclusive [activator, single point]
CCCCCn1c(CCNC(=O)c2cccs2)nc2ccccc21	inactive
Cc1ccc(S(=O)(=O)Nc2ccccc2C(=O)Nc2nc(-c3ccc(F)cc3)cs2)cc1	active: 5.8 µM
COc1cccc(NC(=O)CN(C)C(=O)c2cc(-c3ccccc3)nc3ccc(C)cc23)c1	inconclusive [activator, single point]
N#C/C(=C(/O)CCl)c1nc(-c2ccccc2)cs1	inconclusive [activator, single point]
CC(C)C[C@H](NC(=O)c1[nH]cnc1C(=O)N[C@H](C)c1ccccc1)C(=O)OCc1ccccc1	inconclusive [activator, single point]
CCc1ccc(-c2csc3nc[nH]c(=O)c23)cc1	inconclusive [activator, full curve, poor fit]
O=C(CCl)Nc1cccc(Oc2cnccn2)c1	inconclusive [activator, single point]
COc1ccc(C(C#N)N2CCC(c3ccccc3)=N2)cc1 (stereo not given)	inconclusive [activator, single point]
CCOC(=O)C1=CN(Cc2ccco2)S(=O)(=O)NC1c1ccc(Br)cc1F (stereo not given)	inconclusive [activator, single point]
CCOc1ccccc1/C=N/Nc1nc2ccccc2o1	inactive
O=C(CCc1ccccc1)NCC(=O)N/N=C/c1ccc(O)cc1O	inconclusive [activator, single point]
CCOC(=O)CN1C(=O)C(O)(c2c(C)[nH]c3ccccc23)c2ccccc21 (stereo not given)	inactive
CC(=O)c1ccc(OCC(O)CN2CCc3ccccc3C2)cc1 (stereo not given)	inconclusive [activator, single point]
O=C(Nc1ccc(N2CCN(c3ccccc3)CC2)c(F)c1)C1CC1	inactive
Cc1ccc(SCC(=O)OCC(=O)N(CC(C)C)c2c(N)n(Cc3ccccc3)c(=O)[nH]c2=O)c(C)c1	inconclusive [activator, single point]
O=C(Nc1ccccc1N1CCN(C(=O)c2ccccc2)CC1)c1cccc(Cl)c1	inconclusive [activator, single point]
O=C(c1ccccc1Cc1ccccc1)N1CCN(S(=O)(=O)c2ccc(F)cc2)CC1	inactive
CNS(=O)(=O)c1ccc(NC(=S)Nc2ccc3c(c2)OCO3)cc1	inconclusive [activator, single point]
Clc1ccc(-c2nc(C3CCCCC3)no2)cc1	inconclusive [activator, partial curve, poor fit]
O=C(CSc1nc2c(c(=O)n1-c1ccc(Cl)cc1)SCC2)NCC1CCCO1 (stereo not given)	inactive

Structure (SMILES)	Potency
CCOc1ccc(Br)cc1S(=O)(=O)NCc1ccncc1	inconclusive [activator, partial curve, poor fit]
CSCc1ccc(C(=O)OCc2nc3ccccc3s2)o1	inconclusive [activator, single point]
COc1cc(C=O)cc(OC)c1OS(=O)(=O)c1ccc(NC(C)=O)cc1	inconclusive [activator, single point]
COc1ccccc1/C=C/C=N/NC(=O)CCC1C(=O)NN=C1C (stereo not given)	inconclusive [activator, full curve]
COc1ccc(C(=O)NC(=S)Nc2ccccc2N2CCOCC2)cc1Br	inconclusive [activator, partial curve]
Cc1nn(Cc2ccc(Cl)cc2Cl)c(C)c1NC(=O)CCl	inconclusive [activator, single point]
Cc1ccc(S(=O)(=O)N2CC(O)C2)cc1	inactive
Cc1c([N+](=O)[O-])c(C(=O)Sc2ccc(Br)cc2)nn1C	inactive
O=C(COc1ccc(Cl)cc1Cl)NC(=O)N1CCCCC1	inconclusive [activator, single point]
CCCn1c(SCC(=O)N2CCN(c3ccc(OC)cc3)CC2)nc2c1c(=O)n(C)c(=O)n2C	inconclusive [activator, partial curve, poor fit]
Cc1csc(NC(=O)c2ccc(Br)s2)n1	inactive
COCCNC(=S)N(CCc1c(C)[nH]c2ccccc12)Cc1ccco1	inconclusive [activator, single point]
COc1cccc2cc(C(=O)N3CCN(C(=O)c4ccccc4)CC3)c(=O)oc12	inconclusive [activator, partial curve, poor fit]
COC(=O)c1ccc2c(=O)n(CC3CCCO3)c(SCC(=O)Nc3ccc(OC)cc3OC)nc2c1 (stereo not given)	inactive
CC(=O)Nc1sc(C)c(C)c1C(=O)OCC(=O)Nc1ccc(S(N)(=O)=O)cc1	inconclusive [activator, single point]
O=C(c1ccco1)N1CCN(C(=O)c2ccc(-c3ccc([N+](=O)[O-])cc3)o2)CC1	inconclusive [activator, single point]
COc1ccccc1C(C)NCC(=O)Nc1c(F)cccc1F (stereo not given)	inactive
CC1CCN(C(=O)c2cc(-c3ccccc3O)on2)CC1	inactive
CCCN(C(=O)CSc1nnc(-c2ccoc2C)n1N)C1CCS(=O)(=O)C1 (stereo not given)	inactive
COc1ccc(/C=C2\SC(=O)N(CCNC(=O)C3CCN(S(=O)(=O)c4cccs4)CC3)C2=O)cc1	inactive
CCc1ccc(NC(=S)N(CCCN2CCOCC2)Cc2ccco2)cc1	inconclusive [activator, single point]
Cc1cc(C)cc(NC(=O)NN2C(C)CCCC2C)c1 (stereo not given)	inconclusive [activator, partial curve, poor fit]
